Experimental data from paper PMC3482588.
These are yes or no findings as the source states them, for the method shown. Binding seen in cells or lysates may run through a third protein. Some binding calls cover weakened binding; strength is not graded here.

Sequences of proteins named here, by UniProt entry; tags and fusion partners are left off. A change or cut given only in a name is not applied to a line headed by its entry. A line that says so, or that is headed by a name, gives the form on record, which may keep a tag or linker.
UniProt Q15672: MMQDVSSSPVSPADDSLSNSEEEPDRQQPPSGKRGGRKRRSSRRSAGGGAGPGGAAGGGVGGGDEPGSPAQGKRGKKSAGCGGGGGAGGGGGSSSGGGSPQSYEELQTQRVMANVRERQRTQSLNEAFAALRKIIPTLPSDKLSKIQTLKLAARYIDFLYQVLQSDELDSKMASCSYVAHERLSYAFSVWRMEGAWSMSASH
TWIST1 S144R K145E ΔWR mutant (Q15672, form named): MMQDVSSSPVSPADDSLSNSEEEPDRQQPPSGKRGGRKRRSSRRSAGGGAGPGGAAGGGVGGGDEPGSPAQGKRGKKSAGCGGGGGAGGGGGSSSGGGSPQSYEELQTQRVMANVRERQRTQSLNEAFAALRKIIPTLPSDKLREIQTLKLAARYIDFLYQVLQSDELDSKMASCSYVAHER
UniProt Q04206: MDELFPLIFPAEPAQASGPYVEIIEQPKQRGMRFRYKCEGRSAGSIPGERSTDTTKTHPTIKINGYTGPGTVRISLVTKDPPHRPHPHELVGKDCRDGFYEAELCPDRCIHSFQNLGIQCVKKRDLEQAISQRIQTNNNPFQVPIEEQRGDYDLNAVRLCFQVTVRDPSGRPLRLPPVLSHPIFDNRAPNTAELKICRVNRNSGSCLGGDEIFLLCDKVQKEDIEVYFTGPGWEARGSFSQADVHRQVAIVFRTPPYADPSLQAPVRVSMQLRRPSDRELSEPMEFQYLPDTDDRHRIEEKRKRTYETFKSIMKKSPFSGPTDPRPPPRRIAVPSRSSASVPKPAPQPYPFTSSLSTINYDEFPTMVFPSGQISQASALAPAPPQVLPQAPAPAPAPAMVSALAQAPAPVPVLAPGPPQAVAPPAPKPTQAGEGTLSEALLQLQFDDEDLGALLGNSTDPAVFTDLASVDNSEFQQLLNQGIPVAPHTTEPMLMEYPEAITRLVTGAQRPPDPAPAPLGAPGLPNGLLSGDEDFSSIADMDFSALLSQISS

Key:
[1] = biological target: TWIST1, endogenous in BT549 cells (human (endogenous in BT549)) (UniProt Q15672); assay: co-IP; fractionation-coupled co-IP, cytoplasmic fraction of BT549 cells (10 mM KCl hypotonic buffer, 0.4% IGEPAL); α-TWIST1 antibodies or IgG control; blot for RELA
[2] = biological target: TWIST1, endogenous in BT549 cells (human (endogenous in BT549)) (UniProt Q15672); assay: co-IP; fractionation-coupled co-IP, nuclear fraction of BT549 cells (extracted with 0.4 M NaCl, adjusted to 135 mM); α-TWIST1 antibodies or IgG control; blot for RELA
[3] = biological target: NF-κB subunit RELA (transfected) (UniProt Q04206); assay: co-IP; α-RELA antibodies or IgG control with protein A/G agarose; lysates (100 μg, RIPA buffer) of HEK293 cells 24 h after transfection with RELA and WT or mutant TWIST1; overnight at 4°C, five washes in RIPA; blot for TWIST1

| Substance | binding [2] | binding [3] | binding [1] |
| --- | --- | --- | --- |
| RELA, endogenous in BT549 cells (from UniProt Q04206 1-551) | binds | – | no binding (condition: in the cytosolic fraction) |
| TWIST1 S144R K145E ΔWR mutant (from UniProt Q15672 1-182) (domain or fragment) | – | no binding | – |

The next lines start with results.

| binding [2] | binding [3] | Substance | binding [1] |
| --- | --- | --- | --- |
| – | binds | TWIST1 S144R K145E mutant (from UniProt Q15672 1-202) | – |
| – | binds | TWIST1 wild type (full length) (from UniProt Q15672 1-202) | – |
| – | no binding | TWIST1 ΔWR truncation mutant (from UniProt Q15672 1-182) (domain or fragment) | – |
